Experimental data published in the supplement of paper PMC11417369.
± gives the standard deviation of the averaged measurements. Some of the results follow.

Tested on: PfAP2-LT AP2 domain (GST-tagged)
Test: gcPBM binding intensity (ln(normalized median fluorescence intensity)); higher = stronger DNA binding
Outline: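 For binding intensity, the highest Masliner-normalised natural-log median intensity across replicate spots of either probe orientation was taken. Protein bound to the array was stained with Alexa488 anti-GST antibody and scanned at 488 nm. The protein, GST-tagged P. falciparum DNA-binding domains from E. coli at about 25 μg on average, had been applied for 1 h to an Agilent 4 × 180k array of primer-extended double-stranded 36-bp intergenic genomic probes and negative controls.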

| Sequence | gcPBM binding intensity (ln) |
| --- | --- |
| ATGATATGCAATTTAGTGCATAACAAAATTGGTATA | 8.79 ± 0.5 |
| AAAAAAAAAAAAAAAACACACATACCCATATATTTT [CACACA_site6013] | 9.06 ± 0.42 |
| AAAAAGAACACAAAAAGTACAAAAATTATAATGATA [XGTACX_site2676] | 8.89 ± 0.45 |
| AAACTTCAAAAAGAGCACTTGAATTTTTTTTTTTTT [TGCATGCA_negctrl_site133] | 8.38 ± 0.4 |
| AATATGTTTTACGTCTCACACATATAGGTTTATATT [CACACA_site4713] | 9.11 ± 0.37 |
| CATAAATACAAATATACACACATATTTATATTTATA [CACACA_site7277] | 8.93 ± 0.42 |
| ATATATAGATGTGAATTATTTATATTATCTATTCTT [CACACA_negctrl_site518] | 8.64 ± 0.47 |
| ATTATACTTTCCATTCGTACATATATAAATAAATAA [XGTACX_site6245] | 8.45 ± 0.36 |
| TATTTAAAATAATAACAAAATTAACATAAATATATA [GTGCAC_negctrl_site472] | 8.38 ± 0.49 |
| AACAATAAATTATTATGTACACATATATTATATATA [XGTACX_site4629] | 8.67 ± 0.38 |
| ATATTTTAAAATAATACACACAAAATGATTCTTAAT [CACACA_site2930] | 8.87 ± 0.45 |
| ATAAGTATTACTAGTACACACAAGTTGTTAATCCTT [CACACA_site3324] | 9.15 ± 0.45 |
| TATATTATATAATTTTAACACACAAGAATATAAACT [CACACA_site8378] | 8.79 ± 0.42 |
| ATTTATAAAATATAATTACATTTTTAAATAATAAAA [GTGCAC_negctrl_site43] | 8.11 ± 0.52 |
| TTACGATTTAAAATGGGTACATATATATGAAAAAAA [XGTACX_site545] | 8.49 ± 0.43 |
| CTTATGTGCATACCTACACACTTACCTATATTTATA [CACACA_site7411] | 9.04 ± 0.45 |
| TTTTTTTTGTATTTTTCACACACACCGAAGTAAACA [CACACA_site8575] | 9.29 ± 0.42 |
| TAAAAGGATGCATATACACACATATAGATTTATATA [CACACA_site7336] | 9.07 ± 0.51 |
| ATATAATCTGAGTGCACACAAATAAATAAACATACA [CACACA_site422] | 9.34 ± 0.47 |

| Sequence | gcPBM binding intensity (ln) |
| --- | --- |
| TTTTTCCTTATTAATACACACATTCACCTTTTAAAT [CACACA_site479] | 9.09 ± 0.38 |
| AGTTGCATACATTGAAGTACAGAACATTTATATATA [XGTACX_site240] | 8.81 ± 0.4 |
| TTAAATTCGTCATTTTAAAATAATACAAAAGTTCAA [CACACA_negctrl_site19] | 8.3 ± 0.39 |
| GTATTTATGTGTTTGGTGCAAGGGAGAATTTTTTTT | 8.93 ± 0.21 |
| TCAAAGTAAAACAGGACATGCACAGAACATCCTGCC [TGCATGCA_site2] | 8.88 ± 0.29 |
| AAAAAAAAAACATACACACACATATAGATTTATATG [CACACA_site6847] | 9.31 ± 0.35 |
| TACACAAAGTTACATACACACTAATATTTACACCAT [CACACA_site6602] | 9.06 ± 0.38 |
| TAAAGAAAAATATAAAGTACAAAAATAAAAAAAATA [XGTACX_site8226] | 8.78 ± 0.59 |
| CATAATTATGCAATTGCACACAACTATCATTTTTTT [CACACA_site2997] | 9.19 ± 0.46 |
| TCATTCATATGTTACACACACACACCCACATAAAAA [CACACA_site3245] | 9.8 ± 0.23 |
| AAACCAAGGCACAATAATTAAATAAATAAAATCATG [GTGCAC_negctrl_site574] | 8.78 ± 0.52 |
| ATTTATATATATATAGGTACACATATTTATATATAA [XGTACX_site8487] | 8.63 ± 0.3 |
| ATATAATTTTTCAAGTGTACTTTTTTTTTTTAACAT [XGTACX_site3050] | 8.7 ± 0.44 |
| AAAAAAAAAAAAAAAAAAAAAAAAAAATACATATGT [XGTACX_negctrl_site95] | 8.85 ± 0.27 |
| GATTATATATGAAAATGTACAAATATATATATATAT [XGTACX_site5963] | 9.08 ± 0.47 |
| TTTTTGTATGCTTCCCGACTACATTATGCCATAAAT [CACACA_negctrl_site136] | 9.02 ± 0.52 |
| TATATATAAAAAACATGTACACAAATTTACATACAT [XGTACX_site4777] | 8.84 ± 0.37 |
| TCACTAAACCATTAGAGTACTTGACATATAATGAGC [XGTACX_site3272] | 8.72 ± 0.26 |
| AAGAGTTAAAAAAATACACACATATATATTTTTTTA [CACACA_site1980] | 8.76 ± 0.44 |

| Sequence | gcPBM binding intensity (ln) |
| --- | --- |
| ATATATCTATATGTGTGTACATATAAGTATTTATAT [XGTACX_site5333] | 9.01 ± 0.37 |
| ACATATAAACTGTATACACACAAATATTGCATATAT [CACACA_site6804] | 9.15 ± 0.29 |
| ATATATATAAATATATGTACTAATATATACATATAT [XGTACX_site2289] | 8.73 ± 0.47 |
| TACATTCTAAATATTACACACTTTATAAAATAATAA [CACACA_site4069] | 8.45 ± 0.38 |
| AGAAAAGAGAAATGGGCACACACACCCATATTATAT [CACACA_site8433] | 9.32 ± 0.39 |
| AAGGTGGGAAAAAATAGTACACAACAAAAATGTATG [XGTACX_site8741] | 8.87 ± 0.58 |
| CACACAACTATCAAGGTGCTAAAATGAAATAATATA [GTGCAC_site9871] | 8.85 ± 0.48 |
| AAAAAAATAAAAAATATATAAATAATTAATACATGT [GTGCAC_negctrl_site633] | 8.62 ± 0.59 |
| AATATAAATAAAAACACACACACACGGATATTTATA [CACACA_site7134] | 10 ± 0.25 |
| ATATTATATCTAATCGTGCACAACTGTACATTTGTC | 9.17 ± 0.4 |
| CCCATGTAATATTAAACACACACTCATATAACACAA [CACACA_site7906] | 9.36 ± 0.26 |
| TTGTATCATATATTATGTACATATTTATTTATTATC [XGTACX_site7723] | 8.87 ± 0.41 |
| CAAAATATTTAAAAAAGTACTTAAAATAAATTCAAA [XGTACX_site6866] | 8.47 ± 0.5 |
| ATATTTAAATATATTTATATATATAAAAAAAAATAT [GTGCAC_negctrl_site312] | 8.51 ± 0.45 |
| GAATATTCACATACTTGTACATATATATATATATAT [XGTACX_site7302] | 9.55 ± 0.028 |
| AGGTAAAAATGGTAAGTGCATTAATGATAAAAAATG | 9.06 ± 0.62 |
| TAATAATAGTACTGACATCGAAATATTATTAAAAAT [CACACA_negctrl_site255] | 8.61 ± 0.49 |
| TATAAGAATAAAAAGGGTACATAAAATAATAATATA [XGTACX_site2355] | 8.81 ± 0.5 |
| GTTTACATAGATAACTGTACGCAATGATATTAGACA [XGTACX_site1320] | 8.77 ± 0.37 |
